Experimental data: article PMC4336329 (PLoS ONE, 2015)
Out of some 310,000 compounds screened, about 14,000 (4.5%) showed an effect of 50% or more. The effect is printed as a negative number. This is one part of the list.

Biological target: human ether-à-go-go-related gene (hERG) potassium channel (human, UniProt Q12809)
Assay: primary screen, population patch clamp on CHO cells stably expressing hERG
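Also: peak tail current of the secondary pulse compared with the same well before compound.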

human ether-à-go-go-related gene (hERG) potassium channel, sequence (Q12809 whole entry, looked up): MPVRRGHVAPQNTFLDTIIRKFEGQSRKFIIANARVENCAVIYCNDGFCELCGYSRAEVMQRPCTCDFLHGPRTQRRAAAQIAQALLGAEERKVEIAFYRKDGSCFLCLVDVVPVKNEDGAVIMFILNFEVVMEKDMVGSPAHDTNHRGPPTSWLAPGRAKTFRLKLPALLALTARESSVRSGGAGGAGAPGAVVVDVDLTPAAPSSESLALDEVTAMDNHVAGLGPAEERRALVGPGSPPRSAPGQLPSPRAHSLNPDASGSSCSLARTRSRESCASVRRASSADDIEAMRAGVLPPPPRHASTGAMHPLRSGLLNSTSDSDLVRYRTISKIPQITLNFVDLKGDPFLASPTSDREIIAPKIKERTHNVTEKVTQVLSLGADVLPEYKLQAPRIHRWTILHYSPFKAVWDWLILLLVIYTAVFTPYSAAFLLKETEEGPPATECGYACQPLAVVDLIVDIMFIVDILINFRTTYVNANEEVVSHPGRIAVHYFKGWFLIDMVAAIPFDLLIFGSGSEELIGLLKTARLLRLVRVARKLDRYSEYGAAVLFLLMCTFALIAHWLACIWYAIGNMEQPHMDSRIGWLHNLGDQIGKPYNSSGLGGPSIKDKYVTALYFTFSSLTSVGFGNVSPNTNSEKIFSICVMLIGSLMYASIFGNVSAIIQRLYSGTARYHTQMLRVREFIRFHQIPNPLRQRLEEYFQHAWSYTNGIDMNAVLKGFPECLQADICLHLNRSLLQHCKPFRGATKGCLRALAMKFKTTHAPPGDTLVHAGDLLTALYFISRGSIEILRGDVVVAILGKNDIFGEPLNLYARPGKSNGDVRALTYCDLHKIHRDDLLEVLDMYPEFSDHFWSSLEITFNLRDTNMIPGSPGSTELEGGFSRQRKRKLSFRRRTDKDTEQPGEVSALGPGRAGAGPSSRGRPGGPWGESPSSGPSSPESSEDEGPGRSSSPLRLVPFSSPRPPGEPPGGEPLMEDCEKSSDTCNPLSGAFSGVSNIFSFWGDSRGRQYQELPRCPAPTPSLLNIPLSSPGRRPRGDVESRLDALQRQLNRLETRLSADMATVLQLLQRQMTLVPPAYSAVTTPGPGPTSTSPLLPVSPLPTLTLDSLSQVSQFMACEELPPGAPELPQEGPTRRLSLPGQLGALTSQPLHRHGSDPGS

| SMILES | hERG current change (%, negative = inhibition) at 10uM |
| --- | --- |
| CCCN(C(=O)Cn1ncc2c(=O)oc3ccccc3c21)c1cccc(C)c1 | -54.3% |
| Cc1oc(-c2ccccc2F)nc1CS(=O)CC(=O)NCc1ccc(F)cc1 (stereo not shown) | -12.6% |
| Clc1ccccc1OCc1nn[nH]n1 | 16.3% |
| CCNC(=O)N(C(=O)NCC)n1c(C)nnc1C | 9.19% |
| COc1ccccc1CNC(=O)CN1C(=O)NC(C)(c2ccc(C(C)(C)C)cc2)C1=O (stereo not shown) | 20.5% |
| CC1(C)Cc2ccccc2C(/C(=N/O)C(N)=O)=N1 | -14.4% |
| N#Cc1c(/N=C/c2ccc(O)cc2O)sc2c1C1CCN2CC1 | -12.9% |
| COc1ccccc1C1(O)C(=O)Nc2ccccc21 (stereo not shown) | 23.6% |
| CCS(=O)(=O)NCCc1ccc(OC)c(OC)c1 | 6.13% |
| CCOC(=O)c1cc(NC(=O)c2cccnc2)ccc1N1CCOCC1 | 9.6% |
| Cc1ccc(S(=O)(=O)/N=C(/c2ccccc2)N2CCOCC2)c(C)c1 | 11.1% |
| COCCNc1nc2c(c(=O)n(C)c(=O)n2C)n1Cc1cccc(C)c1 | -1.87% |
| Cn1nc(CC(=O)Nc2ncc(Br)s2)c2ccccc2c1=O | 11.4% |
| N#CC1(Cc2ccc(Cl)cc2)c2ccccc2C=CN1C(=O)c1ccccc1 (stereo not shown) | 6.67% |
| C[N+]1(CC(=O)Nc2ccccc2Cl)CCN(C(=O)c2cccs2)CC1.[Cl-] | 4.19% |
| O=C(Nc1cccc(C(=O)Nc2ccc(Cl)cn2)c1)c1ccccc1 | 11.3% |
| O=C(NC1CC1)c1nc(Cn2ccc([N+](=O)[O-])n2)no1 | 10% |
| C=CCn1c(SCC(=O)NCCCO)nc2sc3c(c2c1=O)CCC3 | 5.06% |
| Cc1n[nH]c(C)c1NC(=O)c1cc([N+](=O)[O-])ccc1Cl | 17.5% |
| CCc1cc2cc(C)ccc2nc1SCC(=O)Nc1cc(C)on1 | -2.05% |
| COc1ccc(-n2ncc3c(N4CCC(C(N)=O)CC4)ncnc32)cc1 | -11.5% |
| C=CC[C@]12C[C@@H](OC)C(=O)C=C1O[C@@H](c1ccc(OC)c(OC)c1)[C@H]2C | 14.5% |
| O=C(Nc1ccc(Cl)cc1[N+](=O)[O-])c1ccc2c(c1)OCCO2 | -4.51% |
| Cc1nn2c(=O)cc(CSCC(=O)Nc3ccccc3Cl)nc2s1 | 17.3% |
| CCCCC(=O)Nc1cccc(NC(=S)NC(C)=O)c1 | -9.87% |
